PubChem BioAssay AID1460 (National Center for Advancing Translational Sciences (NCATS), 2008)
The whole screen tested about 270,000 compounds, of which about 5,800 (2.1%) were called active. The inconclusive results got no clear call from the source; some entries with a clear call stand among them for comparison. Calls follow the shape of the dose curve; as a rule, active = well fitted inhibition curve with a large enough effect; inconclusive = small, poorly fitted or top-dose-only effect; inactive = flat fitted curve, though single readings scatter. Where the call is inconclusive, the potency comes from a doubtful curve fit.

Molecular target: Microtubule-associated protein tau (Homo sapiens) (UniProt P10636)
Assay: qHTS for Inhibitors of Tau Fibril Formation, Thioflavin T Binding; also: nearly all actives have a fitted effect of over 55% in size
Conditions: recombinant tau K18 P301L (four-repeat tau fragment), heparin-induced fibrillization, ThT fluorescence; series mostly up to 57.4 µM
Outline: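 Recombinant human tau K18 fragment […] carrying P301L, 15 uM unlabeled plus 0.24 uM Alexa 594-labeled, was fibrillized with 20 uM heparin in 100 mM sodium acetate pH 7 for 6 hr at 37 C; 30 uM ThT fluorescence read after 1 hr.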
Potency is read from the fitted curve at half-maximal effect; tags tell the direction and shape of the fitted curve.

UniProt P10636, sequence (P10636 whole entry, looked up): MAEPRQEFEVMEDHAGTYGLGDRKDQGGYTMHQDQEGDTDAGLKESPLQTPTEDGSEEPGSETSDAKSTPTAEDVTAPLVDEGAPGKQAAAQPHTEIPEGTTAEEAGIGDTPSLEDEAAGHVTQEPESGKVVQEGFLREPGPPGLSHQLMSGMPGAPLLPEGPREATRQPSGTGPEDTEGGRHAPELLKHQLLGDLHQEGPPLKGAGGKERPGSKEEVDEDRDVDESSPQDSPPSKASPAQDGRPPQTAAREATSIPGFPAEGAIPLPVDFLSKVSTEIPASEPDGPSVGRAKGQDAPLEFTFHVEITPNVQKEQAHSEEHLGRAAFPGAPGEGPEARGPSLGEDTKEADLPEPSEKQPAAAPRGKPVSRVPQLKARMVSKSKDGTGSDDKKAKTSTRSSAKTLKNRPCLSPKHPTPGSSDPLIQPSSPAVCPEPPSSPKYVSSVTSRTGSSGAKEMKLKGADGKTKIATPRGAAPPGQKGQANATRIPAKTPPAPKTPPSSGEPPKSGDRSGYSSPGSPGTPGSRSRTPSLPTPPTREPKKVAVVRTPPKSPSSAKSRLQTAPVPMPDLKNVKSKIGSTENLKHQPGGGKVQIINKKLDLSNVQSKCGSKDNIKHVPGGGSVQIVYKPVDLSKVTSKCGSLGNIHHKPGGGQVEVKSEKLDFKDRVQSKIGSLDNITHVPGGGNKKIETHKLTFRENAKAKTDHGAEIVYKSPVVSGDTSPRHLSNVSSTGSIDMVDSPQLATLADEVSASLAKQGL

Question: Which Potency does the source give for `Cc1ccccc1NCc1nc2ccccc2n1CCOc1ccccc1` here?
Answer: inconclusive: 28.2 µM [inhibitor, single point]

Question: For `CCCCC(=O)Nc1ccc(NC(=O)c2ccc([N+](=O)[O-])cc2)cc1OC`, which Potency is on record?
Answer: inconclusive: 2.24 µM [inhibitor, full curve]

Question: Which Potency does the source give for `COCCCNCC#CCOc1ccc(OC)cc1` here?
Answer: inactive

Question: `COc1ccccc1-c1nc2cc(NC(=O)c3ccccc3Cl)ccc2o1` was tested. Which Potency did it give?
Answer: inconclusive: 0.631 µM [inhibitor, full curve, poor fit]

Question: For `CCOc1ccc(C(=O)Nc2ccc3c(c2)OCCO3)cc1Br`, which Potency is on record?
Answer: inconclusive: 4.47 µM [inhibitor, partial curve]

Question: Which Potency does the source give for `CC1=NC(=O)C(N=Nc2cccc(C(=O)O)c2)N1c1ccccc1` (stereo not given) here?
Answer: active: 15.8 µM

Question: `Cc1ccc(/C=c2\sc3n(c2=O)CN(c2ccc(Br)cc2)CN=3)o1` was tested. Which Potency did it give?
Answer: inconclusive: 12.6 µM [inhibitor, partial curve]

Question: How did the Potency turn out when `C[C@H]1C[C@]2(O[C@@H]2C)C(=O)O[C@@H]2CCN(C)C/C=C(/COC(=O)[C@]1(C)O)C2=O` was run?
Answer: inactive

Question: For `CCOC(=O)c1[nH]c(C)c(C(=O)OCC(=O)N2CCc3ccccc32)c1C`, which Potency is on record?
Answer: inconclusive: 0.501 µM [inhibitor, full curve]

Question: With `CC(C)(C)n1ncc2c(=O)n(CC(=O)N3CCN(c4ccccc4)CC3)cnc21` as the molecule, how does the Potency read?
Answer: inconclusive: 11.2 µM [inhibitor, partial curve]

Question: Which Potency does the source give for `Cc1cccc(CNC(=O)CN2C(=O)CCn3nc(-c4cn(C)c5ccccc45)cc32)c1` here?
Answer: inactive

Question: Which Potency does the source give for `CCCC12CN3CC(C)(CN(C1)C3c1ccc(OCc3ccccc3)cc1)C2=O` (stereo not given) here?
Answer: inactive

Question: For `Cn1cccc1CNCc1ccccc1Cl`, which Potency is on record?
Answer: inconclusive: 15.8 µM [inhibitor, partial curve]

Question: `CCC(=O)N(CC)C1=C(O)c2ccccc2C(=O)C1=O` was tested. Which Potency did it give?
Answer: active: 15.8 µM

Question: For `Nc1nc(N)c2sc3nc(C(F)(F)F)cc(C(F)(F)F)c3c2n1`, which Potency is on record?
Answer: inconclusive: 15.8 µM [inhibitor, partial curve]

Question: With `Cc1cc([N+](=O)[O-])cc2c1NC(c1ccccn1)C1CC=CC21` (stereo not given) as the molecule, how does the Potency read?
Answer: inactive

Question: `CC(/C=C/c1ccco1)=N/NC(=O)OC(C)(C)C` was tested. Which Potency did it give?
Answer: inconclusive: 28.2 µM [inhibitor, partial curve]

Question: Which Potency does the source give for `Nc1c(-c2nc(-c3ccc4c(c3)OCO4)cs2)c2ccccn2c1C(=O)c1ccc(Cl)cc1` here?
Answer: inconclusive: 3.55 µM [inhibitor, partial curve]

Question: `N/C(=N\OC(=O)/C=C/c1ccccc1)c1ccc(Br)cc1` was tested. Which Potency did it give?
Answer: inconclusive: 0.158 µM [inhibitor, full curve]

Question: How did the Potency turn out when `Cc1ccc(OCc2nc(C#N)c(N3CCCCC3)o2)cc1` was run?
Answer: inactive

Question: With `COc1cccc(C2C=C(c3ccc(Br)s3)Nc3ncnn32)c1OC` (stereo not given) as the molecule, how does the Potency read?
Answer: inactive

Question: For `Cc1cccc2cc(C(c3nnnn3CC3CCCO3)N3CCc4ccccc4C3)c(=O)[nH]c12` (stereo not given), which Potency is on record?
Answer: inconclusive: 31.6 µM [inhibitor, single point]

Question: With `COc1ccc(Cn2c(C(=O)O)c(CNC3CCCCC3)c3ccc(C)cc32)cc1` as the molecule, how does the Potency read?
Answer: inactive

Question: How did the Potency turn out when `COc1ccc(OC)c(/C=C(\C#N)c2nc(-c3ccc(F)cc3)cs2)c1` was run?
Answer: inactive

Question: How did the Potency turn out when `Cn1c(C(=O)OCC(=O)NCc2cccs2)cc2sccc21` was run?
Answer: inactive

Question: With `CN(C)c1ccc(-c2nn3c(-c4ccccc4Cl)nnc3s2)cc1` as the molecule, how does the Potency read?
Answer: inconclusive: 8.91 µM [inhibitor, full curve]

Question: How did the Potency turn out when `CCCOc1ccc([N+](=O)[O-])c(N)c1` was run?
Answer: inconclusive: 14.1 µM [inhibitor, partial curve]

Question: Which Potency does the source give for `COc1ccc2c(c1)CCc1c(C(=O)Nc3ccc(OC)cc3OC)noc1-2` here?
Answer: inconclusive: 7.08 µM [inhibitor, partial curve]

Question: `OC1(c2ccc(Cl)c(Cl)c2)C[n+]2ccccc2N1Cc1ccccc1` (stereo not given) was tested. Which Potency did it give?
Answer: inconclusive: 44.7 µM [inhibitor, single point]

Question: How did the Potency turn out when `CCOC(=O)c1c(C)n(C)c2ccc(O)c(CN3CCN(C)CC3)c12` was run?
Answer: inconclusive: 11.2 µM [inhibitor, partial curve]

Question: Which Potency does the source give for `CCOc1ccc(Br)cc1C1NC(=O)c2c(sc3c2CCN(C)C3)N1` (stereo not given) here?
Answer: inconclusive: 39.8 µM [inhibitor, partial curve]

Question: `O=C(OCc1cc(=O)n2nc(C3CC3)sc2n1)c1ccc(NC(=O)c2ccccc2F)cc1` was tested. Which Potency did it give?
Answer: inactive

Question: With `Cc1ccc(C(=O)N2CCC(C)CC2)cc1NC(=O)c1nsc2ccccc12` as the molecule, how does the Potency read?
Answer: inconclusive: 28.2 µM [inhibitor, single point]

Question: `Cc1ccc(SC(C)C(=O)Nc2ccccc2-c2ccccc2)cc1` (stereo not given) was tested. Which Potency did it give?
Answer: inactive

Question: `COc1ccc(-c2nc3cc(NC(=O)c4ccc(C)cc4)ccc3o2)cc1Cl` was tested. Which Potency did it give?
Answer: inconclusive: 0.708 µM [inhibitor, single point]

Question: How did the Potency turn out when `Cc1ccc(-c2cc(C(=O)N3CCN(c4ncccn4)CC3)c3cc(Br)ccc3n2)o1` was run?
Answer: inconclusive: 28.2 µM [inhibitor, single point]

Question: Which Potency does the source give for `CC(=O)c1cc(-c2ccc(F)cc2)n(CCC(=O)Nc2nc3ccc(C)cc3s2)c1C` here?
Answer: inactive

Question: How did the Potency turn out when `CC1=NN(CCC#N)C(=O)/C1=C/c1ccc(N(C)C)cc1` was run?
Answer: active: 25.1 µM

Question: For `COc1ccc(NC(=S)Nc2ccc(N)c([N+](=O)[O-])c2)cc1`, which Potency is on record?
Answer: active: 15.8 µM

Question: For `CCOC(=O)c1cnc2ccc(OCC)cc2c1Nc1ccc(OCc2ccccc2Cl)cc1`, which Potency is on record?
Answer: inconclusive: 11.2 µM [inhibitor, partial curve, poor fit]

Question: Which Potency does the source give for `CC(=O)Nc1ccc(S(=O)(=O)N2CCOCC2)cc1` here?
Answer: inactive

Question: Which Potency does the source give for `CCOc1ccc(N(CC(=O)N/N=C/c2ccc(OC(C)C)cc2)S(C)(=O)=O)cc1` here?
Answer: inactive

Question: `CCCC(c1nnnn1CC(=O)OCC)N(Cc1cc2ccc(C)cc2[nH]c1=O)C1CCCC1` (stereo not given) was tested. Which Potency did it give?
Answer: inconclusive: 14.1 µM [inhibitor, partial curve]

Question: How did the Potency turn out when `O=c1cc(O)c(-c2ccccc2Cl)c(Cl)[nH]1` was run?
Answer: inactive

Question: How did the Potency turn out when `CCN(c1ccccc1)S(=O)(=O)c1ccc(NC(=O)c2nc(SC(C)C)ncc2Cl)cc1` was run?
Answer: inactive

Question: Which Potency does the source give for `COc1ccc(/C=C2\SC(=S)N(N3C(=O)CCC3=O)C2=O)cc1O` here?
Answer: inconclusive: 14.1 µM [inhibitor, partial curve]

Question: How did the Potency turn out when `Cc1cccc(Oc2sc(C(=O)c3ccccc3)c(N)c2C#N)c1C` was run?
Answer: inconclusive: 12.6 µM [inhibitor, partial curve]

Question: How did the Potency turn out when `Cc1ccc(O)c(-c2n[nH]c3c2C(c2ccc(F)cc2)N(Cc2ccco2)C3=O)c1` (stereo not given) was run?
Answer: inconclusive: 28.2 µM [inhibitor, partial curve]

Question: `O=C(c1ccc(COc2ccccc2Br)o1)N1CCN(c2ccccn2)CC1` was tested. Which Potency did it give?
Answer: inconclusive: 39.8 µM [inhibitor, partial curve, poor fit]

Question: Which Potency does the source give for `Cc1cccc(CN2C(=O)N/C(=C/c3cc(C)n(-c4cc(C)ccn4)c3C)C2=O)c1` here?
Answer: inconclusive: 31.6 µM [inhibitor, partial curve]

Question: `COc1ccc(/C=C(/NC(=O)c2ccccc2)c2nc3ccc(Cl)cc3[nH]2)cc1OC` was tested. Which Potency did it give?
Answer: inconclusive: 22.4 µM [inhibitor, single point]

Question: How did the Potency turn out when `CCc1cc(OCCCCNCc2ccccc2)ccc1Cl` was run?
Answer: inactive

Question: `CCc1ccc(/C=C2\CN(CC)Cc3c2nc2ccccc2c3C(=O)O)cc1` was tested. Which Potency did it give?
Answer: active: 25.1 µM

Question: Which Potency does the source give for `CCS(=O)(=O)Nc1ccc(-c2nnc(SCC(=O)c3cccc(OC)c3)o2)cc1` here?
Answer: inactive

Question: With `CC(=O)c1ccsc1-c1c(C)cc2oc(=O)cc(-c3ccccc3)c2c1C` as the molecule, how does the Potency read?
Answer: inconclusive: 6.31 µM [inhibitor, partial curve]

Question: `OC(COc1cccc2ccccc12)CN1CCN(c2ccccc2Cl)CC1` (stereo not given) was tested. Which Potency did it give?
Answer: inconclusive: 39.8 µM [inhibitor, single point]

Question: Which Potency does the source give for `c1ccc(-c2ccc(OCCCn3cncn3)cc2)cc1` here?
Answer: inconclusive: 35.5 µM [inhibitor, partial curve, poor fit]

Question: `O=C(CSc1nnc(-c2cccnc2)n1Cc1ccco1)N1c2ccccc2Sc2ccccc21` was tested. Which Potency did it give?
Answer: inconclusive: 39.8 µM [inhibitor, partial curve]

Question: `COc1ccc(C(C)(C)C)cc1NC(=O)COC(=O)c1ccc([N+](=O)[O-])o1` was tested. Which Potency did it give?
Answer: inactive

Question: With `COc1cc(Br)cc(-c2nc3c(c(=O)[nH]c(=O)n3Cc3ccccc3)n2C)c1O` as the molecule, how does the Potency read?
Answer: inconclusive: 20 µM [inhibitor, single point]

Question: For `CCC(=O)N1c2ccc(C)cc2C2=NNC(=S)NC21O` (stereo not given), which Potency is on record?
Answer: inconclusive: 39.8 µM [inhibitor, single point]

Question: How did the Potency turn out when `O=C(Nc1sc2c(c1C(=O)O)CCCCC2)c1cccs1` was run?
Answer: inconclusive: 8.91 µM [inhibitor, partial curve]

Question: Which Potency does the source give for `Cn1ncc(C(N)=O)c1NC(=S)NC(=O)c1ccc(Br)o1` here?
Answer: inactive

Question: For `O=c1[nH]c(NCc2ccccc2)nc2c1CCCC2`, which Potency is on record?
Answer: inactive

Question: How did the Potency turn out when `NNc1nc2sc3c(c2c(=O)n1-c1ccccc1)CCCC3` was run?
Answer: inconclusive: 11.2 µM [inhibitor, partial curve, poor fit]

Question: With `CCOc1cc(C(c2c(C)[nH][nH]c2=O)c2c(C)[nH][nH]c2=O)ccc1OS(=O)(=O)c1ccc(C)cc1` as the molecule, how does the Potency read?
Answer: inconclusive: 31.6 µM [inhibitor, single point]

Question: For `CCc1ccccc1N(CC)C(=O)C1CCN(c2ncnc3c2nc2n3CCCCC2)CC1`, which Potency is on record?
Answer: inconclusive: 25.1 µM [inhibitor, single point]

Question: How did the Potency turn out when `COc1ccc(C2(C)NC(=O)N(CC(=O)Nc3ccc4c(c3)OCO4)C2=O)cc1OC` (stereo not given) was run?
Answer: inconclusive: 12.6 µM [inhibitor, partial curve]

Question: Which Potency does the source give for `CCCn1c(C)nc2c(NCCN3CCCC3)nc(C)nc21` here?
Answer: inconclusive: 8.91 µM [inhibitor, single point]

Question: How did the Potency turn out when `CSc1ccc(/C=N/NC(=O)c2cccc(O)c2)cc1` was run?
Answer: inconclusive: 2.82 µM [inhibitor, full curve, poor fit]
